Data reported in paper PMC4336329 (PLoS ONE, 2015).
Hit rate of the full screen: of about 310,000 compounds, about 2,200 (0.71%) showed an effect of 50% or more. Effects have a minus sign here. The list shows a part of the results.

biological target: human ether-à-go-go-related gene (hERG) potassium channel (human, UniProt Q12809); assay: primary screen, population patch clamp on CHO cells stably expressing hERG
Sequence (Q12809 whole entry, looked up): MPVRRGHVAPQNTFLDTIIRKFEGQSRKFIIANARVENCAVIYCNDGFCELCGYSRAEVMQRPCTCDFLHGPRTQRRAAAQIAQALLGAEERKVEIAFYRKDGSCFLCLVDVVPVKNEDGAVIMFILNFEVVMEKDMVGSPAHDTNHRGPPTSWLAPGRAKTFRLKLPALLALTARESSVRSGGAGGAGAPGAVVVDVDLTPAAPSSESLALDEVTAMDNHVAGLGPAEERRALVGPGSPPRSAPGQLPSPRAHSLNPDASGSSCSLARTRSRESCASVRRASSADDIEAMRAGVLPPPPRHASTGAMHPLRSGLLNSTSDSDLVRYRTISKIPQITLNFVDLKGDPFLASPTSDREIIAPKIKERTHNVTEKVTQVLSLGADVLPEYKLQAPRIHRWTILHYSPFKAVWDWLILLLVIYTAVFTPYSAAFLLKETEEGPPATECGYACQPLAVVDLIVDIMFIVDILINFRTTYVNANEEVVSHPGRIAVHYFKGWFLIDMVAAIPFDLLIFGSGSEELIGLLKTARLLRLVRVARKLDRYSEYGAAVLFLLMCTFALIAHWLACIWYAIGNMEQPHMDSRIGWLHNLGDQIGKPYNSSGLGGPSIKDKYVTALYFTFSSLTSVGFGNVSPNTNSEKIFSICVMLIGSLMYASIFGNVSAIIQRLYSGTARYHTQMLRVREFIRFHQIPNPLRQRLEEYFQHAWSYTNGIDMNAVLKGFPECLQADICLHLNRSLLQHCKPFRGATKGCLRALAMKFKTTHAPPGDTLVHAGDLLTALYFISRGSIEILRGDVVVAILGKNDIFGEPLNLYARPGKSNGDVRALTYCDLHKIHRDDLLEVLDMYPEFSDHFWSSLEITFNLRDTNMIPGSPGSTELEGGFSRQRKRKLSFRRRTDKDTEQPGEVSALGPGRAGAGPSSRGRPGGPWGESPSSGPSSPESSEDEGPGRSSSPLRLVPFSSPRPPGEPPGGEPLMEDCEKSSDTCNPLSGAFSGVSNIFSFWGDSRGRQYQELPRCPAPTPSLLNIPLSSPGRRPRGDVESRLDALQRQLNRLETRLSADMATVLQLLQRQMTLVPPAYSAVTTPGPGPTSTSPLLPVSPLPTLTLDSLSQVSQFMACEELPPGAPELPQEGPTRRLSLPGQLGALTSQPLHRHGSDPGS

Row | SMILES | hERG current change (%, negative = inhibition) at 1uM [%]
1 | Cc1cccc(C(=O)N2CCN=C2SCc2ccc([N+](=O)[O-])cc2)c1 | -20.8
2 | O=c1c(Cc2ccc(F)cc2)c(O)ccn1C1CCCCC1 | 1.07
3 | CC(C)c1ccc(CNC(=O)CCc2ccccc2)cc1 | 7.63
4 | COc1cccc(CN(C(=O)c2ccco2)C2CCS(=O)(=O)C2)c1 (stereo not shown) | 6.03
5 | COc1cccc(OCC(=O)NNC(=O)C(=O)Nc2ccc(OC)cc2OC)c1 | 8.1
6 | COc1cc2c(cc1OC)C1=CC(=O)C(=O)N1C(C)(C)C2 | 13.3
7 | COc1ccc(C(=O)N/N=C(\C)CC(=O)Nc2ccc3c(c2)OCO3)cc1 | 1.77
8 | O=c1c(C(c2ccc(F)cc2)c2c(O)nc3n(c2=O)CCS3)c(O)nc2n1CCS2 | 9.15
9 | NC(=O)Cn1nc(-c2ccccc2)nc1-c1ccccc1 | 13.6
10 | Cc1ccc(CNC(=O)C(C)C2Sc3ccccc3NC2=O)cc1 (stereo not shown) | 10.2
11 | CC(c1ccccc1)C1CC(=O)N(Cc2ccccc2)C1=O (stereo not shown) | 6.38
12 | CCOC(=O)c1c(C=O)c(C)n(Cc2ccc(C)cc2)c1C | 17.6
13 | Cc1ccccc1CO/N=C/c1[nH]ncc1Br | 8.84
14 | Cc1cc(OCC(=O)NCc2cccnc2)c2c(C)cc(=O)oc2c1 | -2.33
15 | COC(=O)C1CSC(C(=O)OC)N1C(=O)Nc1ccc(Cl)c(Cl)c1 (stereo not shown) | 7.39
16 | COCc1cc(CN(C)C(=O)C2CCC(=O)N(Cc3cccc(OC)c3)C2)[nH]n1 (stereo not shown) | 11.9
17 | CCOC(=O)c1c(C)[nH]c(C(=O)OCC(=O)Nc2cc(C)nn2-c2ccccc2)c1C | 8.06
18 | COc1ncccc1C(=O)N1CCCC(N2CCN(c3ccc(F)cc3)CC2)C1 (stereo not shown) | -11.1
19 | O=C(CC12CC3CC(CC(C3)C1)C2)NC(=S)Nc1ccc(CN2CCOCC2)cc1 | 0.574
20 | COc1ccc(-c2cn3nc(SCC(=O)NC4CCCCC4)ccc3n2)cc1 | 16.3
21 | O=C1NC(=O)N(c2ccc3c(c2)OCO3)C(=O)/C1=C/c1ccc(N2CCCC2)o1 | 9.37
22 | Cc1ccc(NC(=O)C(=O)NCC2CCCN2S(=O)(=O)c2cccs2)cc1 (stereo not shown) | 9.03

Row | SMILES | hERG current change (%, negative = inhibition) at 1uM [%]
23 | COc1ccc(OCCCC(=O)OCC(=O)Nc2ccc(Cl)cn2)cc1 | 8.56
24 | Cn1c(/C(C#N)=C/c2cccc(O)c2)nc2ccccc21 | 13
25 | COc1c(Cl)cc(-c2noc(C)c2C(=O)NC(C)C)cc1Cl | 8.81
26 | COC1CCCCC1Nc1cccc(SC)c1 (stereo not shown) | 10.1
27 | Cc1cc(C)c(C(=O)NC2CCCc3c2cnn3-c2cccc(C)c2C)o1 (stereo not shown) | 4.8
28 | N#CCSc1nc2c(cc1C#N)CCCCCC2 | 16
29 | Cc1cc(=O)oc(C)c1C(=O)NC1CC(C)(C)NC(C)(C)C1 | 14.8
30 | CCCCOc1ccc(CNC(=O)NS(=O)(=O)c2ccc(OCC(C)C)cc2)cc1 | -2.25
31 | O=C(CCCc1ccccc1)NCc1ccc2c(c1)OCO2 | 8.58
32 | COC(=O)[C@@H](Cc1ccccc1)NC(=O)[C@H]1CCC(=O)N1C(=O)OCc1ccccc1 | 7.85
33 | COc1ccc(C(=O)CSc2nnc(-c3ccc(S(=O)(=O)N4CCOCC4)cc3)o2)cc1 | 6.38
34 | Cc1ccccc1CN1CCN(C(=O)c2ccco2)CC1.O=C(O)C(=O)O | 10.1
35 | COc1ccc2c(c1OC)C(=O)N1c3ccccc3C(=O)N(c3ccccc3)C21 (stereo not shown) | 5.08
36 | COc1cc(C(=O)N/N=C(\Cc2ncc[nH]2)c2ccccc2)cc(OC)c1OC | -15.4
37 | CS(=O)(=O)c1ccc2nc(NC(=O)CCS(=O)(=O)c3ccccc3)sc2c1 | 15.6
38 | CCOC(=O)C1CCN(c2c(NCCN3CCN(c4ccccc4)CC3)c(=O)c2=O)CC1 | 11.5
39 | CCN(CC)C(=O)COc1ccc(/C(C)=N/NC(=O)c2ccccc2Br)cc1 | 7.48
40 | CCN(CC)S(=O)(=O)c1cc(NC(=O)CCNC(=O)c2ccccc2Cl)ccc1C | 10.7
41 | Cc1ccc(SCC(=O)OCC(=O)N(CC(C)C)C2CCS(=O)(=O)C2)cc1C (stereo not shown) | 3.11
42 | Cn1c(C(=O)NCc2ccc3c(c2)OCO3)cc2sccc21 | 8.55
43 | CC(C)CCNC(=O)c1cc2c(=O)n3ccccc3nc2s1 | 11.4
